# Measurements published in the supplement of paper PMC8728848.
# The other results are listed elsewhere or left out.
# B1: Tamarinin (protein)
# chain: CDDSARAGNIVVYWGQGGSDNSEGSLKEACKSGHYNMIVLQQLIVYDDGRDPDLNLGAHCSDCTKLEEQIKYCQNKDIKILLQIGQVVPTQEDVKDVTKNLSEYLLKNFFSGKSGPLGEVYLNGIDIASVPEGNNLKFDELVEALNDSSTERRIYLSASPLCVYPDYYLNKAIQTEKLDFLFVQFFYQNPCIYTEGNPENLFEAMKTWTKNVPESMIFMALPATPNLDGYIPPRVLNKEILPAVSEASNFAGVMIFDRYFDRFRKYSSKIK
# Assays:
# Test in all cases: glycan array binding signal (z-score within array); higher = stronger binding
# Details in all cases: glycan notation: IUPAC condensed, linker removed
# [1] = biological target: Neu5Ac(a2-3)Gal(b1-4)GlcNAc(b1-3)Gal(b1-4)GlcNAc(b1-3)Gal(b1-4)GlcNAc
# How it was run: (§1)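 From the Consortium for Functional Glycomics database, 3228 arrays were curated, keeping only those whose protein sequence was available. Binding is given as a within-array Z-score averaged across arrays sharing a protein sequence and across linkers. Negative Z-scores can be read as non-binding.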
# [2] = biological target: Neu5Ac(a2-3)Gal(b1-4)GlcNAc(b1-3)Gal(b1-4)GlcNAc(b1-3)Gal(b1-4)GlcNAc(b1-2)Man(a1-3)[Neu5Ac(a2-3)Gal(b1-4)GlcNAc(b1-3)Gal(b1-4)GlcNAc(b1-3)Gal(b1-4)GlcNAc(b1-2)Man(a1-6)]GalNAc
# How it was run: as §1
# [3] = biological target: Neu5Ac(a2-3)Gal(b1-4)GlcNAc(b1-3)Gal(b1-4)GlcNAc(b1-3)GalNAc
# How it was run: as §1
# [4] = biological target: Neu5Ac(a2-3)Gal(b1-4)GlcNAc(b1-3)Gal(b1-4)GlcNAc(b1-3)[Neu5Ac(a2-3)Gal(b1-4)GlcNAc(b1-3)Gal(b1-4)GlcNAc(b1-6)]GalNAc
# How it was run: as §1
# [5] = biological target: Neu5Ac(a2-3)Gal(b1-4)GlcNAc(b1-3)Gal(b1-4)GlcNAc(b1-6)[Gal(b1-3)]GalNAc
# How it was run: as §1
# [6] = biological target: Neu5Ac(a2-3)Gal(b1-4)GlcNAc(b1-3)Gal(b1-4)[Fuc(a1-3)]GlcNAc
# How it was run: as §1
# [7] = biological target: Neu5Ac(a2-3)Gal(b1-4)GlcNAc(b1-3)GalNAc
# How it was run: as §1
# [8] = biological target: Neu5Ac(a2-3)Gal(b1-4)GlcNAc(b1-3)[Neu5Ac(a2-3)Gal(b1-4)GlcNAc(b1-6)]GalNAc
# How it was run: as §1
# [9] = biological target: Neu5Ac(a2-3)Gal(b1-4)GlcNAc(b1-6)GalNAc
# How it was run: as §1
# [10] = biological target: Neu5Ac(a2-3)Gal(b1-4)GlcNAc(b1-6)[Gal(b1-3)]GalNAc
# How it was run: as §1
# [11] = biological target: Neu5Ac(a2-3)Gal(b1-4)GlcNAc(b1-6)[Neu5Ac(a2-3)Gal(b1-3)]GalNAc
# How it was run: as §1
# [12] = biological target: Neu5Ac(a2-3)Gal(b1-4)GlcNAc6S
# How it was run: as §1
# [13] = biological target: Neu5Ac(a2-3)Gal(b1-4)[Fuc(a1-3)]GlcNAc
# How it was run: as §1
# [14] = biological target: Neu5Ac(a2-3)Gal(b1-4)[Fuc(a1-3)]GlcNAc(b1-2)Man
# How it was run: as §1
# [15] = biological target: Neu5Ac(a2-3)Gal(b1-4)[Fuc(a1-3)]GlcNAc(b1-3)Gal
# How it was run: as §1
# [16] = biological target: Neu5Ac(a2-3)Gal(b1-4)[Fuc(a1-3)]GlcNAc(b1-3)Gal(b1-4)GlcNAc
# How it was run: as §1
# [17] = biological target: Neu5Ac(a2-3)Gal(b1-4)[Fuc(a1-3)]GlcNAc(b1-3)Gal(b1-4)[Fuc(a1-3)]GlcNAc(b1-3)Gal(b1-4)[Fuc(a1-3)]GlcNAc
# How it was run: as §1
# [18] = biological target: Neu5Ac(a2-3)Gal(b1-4)[Fuc(a1-3)]GlcNAc(b1-3)GalNAc
# How it was run: as §1
# [19] = biological target: Neu5Ac(a2-3)Gal(b1-4)[Fuc(a1-3)]GlcNAc(b1-6)[Gal(b1-3)]GalNAc
# How it was run: as §1
# [20] = biological target: Neu5Ac(a2-3)Gal(b1-4)[Fuc(a1-3)]GlcNAc(b1-6)[Neu5Ac(a2-3)Gal(b1-3)]GalNAc
# How it was run: as §1
# [21] = biological target: Neu5Ac(a2-3)Gal(b1-4)[Fuc(a1-3)]GlcNAc6S
# How it was run: as §1
# [22] = biological target: Neu5Ac(a2-3)Gal6S(b1-4)GlcNAc
# How it was run: as §1
# [23] = biological target: Neu5Ac(a2-3)Gal6S(b1-4)[Fuc(a1-3)]GlcNAc
# How it was run: as §1
# [24] = biological target: Neu5Ac(a2-3)GalNAc
# How it was run: as §1
# [25] = biological target: Neu5Ac(a2-3)GalNAc(b1-4)GlcNAc
# How it was run: as §1
# [26] = biological target: Neu5Ac(a2-3)[GalNAc(b1-4)]Gal(b1-4)Glc
# How it was run: as §1
# [27] = biological target: Neu5Ac(a2-3)[GalNAc(b1-4)]Gal(b1-4)GlcNAc
# How it was run: as §1
# [28] = biological target: Neu5Ac(a2-3)[GalNAc(b1-4)]Gal(b1-4)GlcNAc(b1-3)GalNAc
# How it was run: as §1
# [29] = biological target: Neu5Ac(a2-3)[Neu5Ac(a2-6)]GalNAc
# How it was run: as §1
# [30] = biological target: Neu5Ac(a2-6)Gal
# How it was run: as §1
# [31] = biological target: Neu5Ac(a2-6)Gal(b1-3)GlcNAc(b1-3)[Gal(b1-4)GlcNAc(b1-6)]Gal(b1-4)Glc
# How it was run: as §1
# [32] = biological target: Neu5Ac(a2-6)Gal(b1-4)Glc
# How it was run: as §1
# [33] = biological target: Neu5Ac(a2-6)Gal(b1-4)GlcNAc
# How it was run: as §1
# [34] = biological target: Neu5Ac(a2-6)Gal(b1-4)GlcNAc(b1-2)Man
# How it was run: as §1
# [35] = biological target: Neu5Ac(a2-6)Gal(b1-4)GlcNAc(b1-2)Man(a1-3)Man(b1-4)GlcNAc(b1-4)GlcNAc
# How it was run: as §1
# [36] = biological target: Neu5Ac(a2-6)Gal(b1-4)GlcNAc(b1-2)Man(a1-3)[Gal(b1-4)GlcNAc(b1-2)Man(a1-6)]Man(b1-4)GlcNAc(b1-4)GlcNAc
# How it was run: as §1
# [37] = biological target: Neu5Ac(a2-6)Gal(b1-4)GlcNAc(b1-2)Man(a1-3)[GlcNAc(b1-2)Man(a1-6)]Man(b1-4)GlcNAc(b1-4)GlcNAc
# How it was run: as §1
# [38] = biological target: Neu5Ac(a2-6)Gal(b1-4)GlcNAc(b1-2)Man(a1-3)[GlcNAc(b1-4)][Neu5Ac(a2-6)Gal(b1-4)GlcNAc(b1-2)Man(a1-6)]Man(b1-4)GlcNAc(b1-4)GlcNAc
# How it was run: as §1
binder,measurement,setting,value
B1,glycan array binding signal (z-score),[1],-0.251
same,glycan array binding signal (z-score),[2],-0.109
same,glycan array binding signal (z-score),[3],-0.398
same,glycan array binding signal (z-score),[4],-0.344
same,glycan array binding signal (z-score),[5],-0.291
same,glycan array binding signal (z-score),[6],-0.359
same,glycan array binding signal (z-score),[7],-0.062
same,glycan array binding signal (z-score),[8],-0.316
same,glycan array binding signal (z-score),[9],-0.136
same,glycan array binding signal (z-score),[10],-0.062
same,glycan array binding signal (z-score),[11],-0.43
same,glycan array binding signal (z-score),[12],-0.282
same,glycan array binding signal (z-score),[13],-0.501
same,glycan array binding signal (z-score),[14],-0.21
same,glycan array binding signal (z-score),[15],-0.489
same,glycan array binding signal (z-score),[16],-0.229
same,glycan array binding signal (z-score),[17],-0.264
same,glycan array binding signal (z-score),[18],-0.389
same,glycan array binding signal (z-score),[19],-0.269
same,glycan array binding signal (z-score),[20],-0.162
same,glycan array binding signal (z-score),[21],-0.185
same,glycan array binding signal (z-score),[22],-0.468
same,glycan array binding signal (z-score),[23],-0.371
same,glycan array binding signal (z-score),[24],-0.148
same,glycan array binding signal (z-score),[25],1.16
same,glycan array binding signal (z-score),[26],-0.447
same,glycan array binding signal (z-score),[27],-0.449
same,glycan array binding signal (z-score),[28],-0.275
same,glycan array binding signal (z-score),[29],-0.485
same,glycan array binding signal (z-score),[30],-0.376
same,glycan array binding signal (z-score),[31],-0.386
same,glycan array binding signal (z-score),[32],-0.292
same,glycan array binding signal (z-score),[33],-0.341
same,glycan array binding signal (z-score),[34],-0.14
same,glycan array binding signal (z-score),[35],-0.348
same,glycan array binding signal (z-score),[36],-0.313
same,glycan array binding signal (z-score),[37],-0.421
same,glycan array binding signal (z-score),[38],-0.541
